Assay [1] concerns the target T1, HBoV1 NS[…] with Flag and His tags (human bocavirus 1 (HBoV1)).
T1 construct: source: E. coli BL21/DE3 pLysS, purified (His tag, Sephadex G75)
Put plainly: BLI. The settings on record: both partners purified.

The target of assay [2] is T1, HBoV1 NS[…] with Flag and His tags. Put plainly: pull-down. To be noted: both partners purified.

B1: Ku70 domain C (C-terminal domain) with Strep-tag II (domain or fragment)
chain: not shown
notes: also called Strep-tagged domain C; source: E. coli BL21(DE3), purified (Strep-Tactin agarose); not shown: Strep-tag II, C-terminal, kept
As to B1, the Kd (in general, a measure of binding affinity in units of concentration) in assay [1] amounted to 180 nM. In other words, the sub-micromolar range.

B2: Ku70 domain B (β-barrel domain) with Strep-tag II (domain or fragment)
chain: not shown
notes: also called Strep-tagged domain B; source: E. coli BL21(DE3), purified (Strep-Tactin agarose); not shown: Strep-tag II, C-terminal, kept
Take B2: the binding result in assay [2] is “binds”.

(Values after paper PMC8865542, “The Large Nonstructural Protein (NS1) of Human Bocavirus 1 Directly Interacts with Ku70, Which Plays an Important Role in Virus Replication in Human Airway Epithelia” (Journal of Virology, 2021).)
